Sequences with one replicate were seen in a single cluster, so their values are uncertain.
Test system: ATP
Experiment: switch fluorescence ratio, 500 uM ATP over buffer (Cy3 cluster intensity, sum of 5 cycles each) (fold (ratio)); higher = stronger signal-on switching upon ATP binding; sequences stand for … in TCGTCGGCAGCGTCAGATGTGTATAAGAGACAGTTTTTTTTTTTTTTTTTTTTTTTTT…TC
Settings: aptamer strand: ATP DNA aptamer (quencher-CACCTGGGGGAGTATTGCGGAGGAAGG + anchor), 100 nM annealed; ATP concentration: 500 uM; one replicate
How it was run: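 Switching-strand clusters labelled with Cy3 on a modified Illumina MiSeq flow-cell were annealed to 100 nM quencher-labelled ATP aptamer, imaged in selection buffer, and re-imaged after 15 min with 500 uM ATP at 22 °C. This was done over five cycles with NaOH stripping and re-annealing in between. The fluorescence ratio is summed target-cycle over summed buffer-cycle Cy3 intensity per cluster, averaged per switch-domain sequence, excluding clusters outside 100-1000 RFU.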
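Further: ATP exposure 15 min at 22 °C before imaging.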

CGCCGGTG
switch fluorescence ratio: 1.08

TATCTCAGGC
switch fluorescence ratio: 1.03

ACTCGGGAGA
switch fluorescence ratio: 1.01

TTACGTGAAA
switch fluorescence ratio: 1.01

TCACTCTACG
switch fluorescence ratio: 1.31

ATGACTTGT
switch fluorescence ratio: 0.951

GTCGTGATTG
switch fluorescence ratio: 0.988

GACTTCGGTT
switch fluorescence ratio: 1

TATTAGCAGT
switch fluorescence ratio: 0.95

GTTACATAGG
switch fluorescence ratio: 1.01

AGCAATAAGG
switch fluorescence ratio: 1.17

TCACAGGCA
switch fluorescence ratio: 0.987

GAGCCTTAAG
switch fluorescence ratio: 1.05

GGGGACTCTA
switch fluorescence ratio: 1.07

TTAGACCGTT
switch fluorescence ratio: 0.992

CATGCGATGT
switch fluorescence ratio: 1.02

GACAGTTGTC
switch fluorescence ratio: 0.983

CTCCAGCGTA
switch fluorescence ratio: 1.77

TCCCAAATCG
switch fluorescence ratio: 1.02

GCTTTAGAAC
switch fluorescence ratio: 0.976

ACTACTCGGT
switch fluorescence ratio: 1.02

AATTGTACCA
switch fluorescence ratio: 1.01

GGGTAGACGC
switch fluorescence ratio: 0.974

ACGGAAGAAT
switch fluorescence ratio: 1.06

GAGTGGAGTT
switch fluorescence ratio: 1.01

GCTAAGCCCG
switch fluorescence ratio: 1.01

CCCTCTGTGG
switch fluorescence ratio: 1.02

ATTCACGAGT
switch fluorescence ratio: 1.06

TGGCAATTTT
switch fluorescence ratio: 1.19

AGATATGCT
switch fluorescence ratio: 0.963

GCTTAAGCTG
switch fluorescence ratio: 0.995

CTACCTAAGT
switch fluorescence ratio: 1.07

ACGGGCCAGT
switch fluorescence ratio: 0.992

GATTATGTAC
switch fluorescence ratio: 1.08

TGGAACGGTG
switch fluorescence ratio: 1.03

ACGTGACTAC
switch fluorescence ratio: 1.52

CGGAGTATA
switch fluorescence ratio: 1.42

CGTTGAATGT
switch fluorescence ratio: 1

ATCTCACGGC
switch fluorescence ratio: 1.06

TAATATCGTA
switch fluorescence ratio: 0.993

CAGACTGT
switch fluorescence ratio: 0.987

ATGCATACAC
switch fluorescence ratio: 1.22

TGGCCCTTGT
switch fluorescence ratio: 1.01

GAATGGTGTG
switch fluorescence ratio: 1.01

TTCAGGTACG
switch fluorescence ratio: 1.01

TTCGTCGCCC
switch fluorescence ratio: 1.01

TAGGTCATTT
switch fluorescence ratio: 0.986

CGGAACCAGA
switch fluorescence ratio: 1.04

CGTCTGTGGC
switch fluorescence ratio: 1.07

AGCCCGTATG
switch fluorescence ratio: 1.04

ATTTGGCGAT
switch fluorescence ratio: 1.03

CTCGCGGGAT
switch fluorescence ratio: 0.984

TGTCGGATAC
switch fluorescence ratio: 1.15

TTCTAGAGCA
switch fluorescence ratio: 1.11

AAATATTCCA
switch fluorescence ratio: 1.06

TAATCGGTCT
switch fluorescence ratio: 0.957

GTAATGAA
switch fluorescence ratio: 0.99

TGTGAGCTAA
switch fluorescence ratio: 1.01

TTGCGGTGGT
switch fluorescence ratio: 0.995

CTGGTCGACA
switch fluorescence ratio: 0.977

GTTACGAGCA
switch fluorescence ratio: 1.01

AAGTGACTCC
switch fluorescence ratio: 1.25

CTCAATGAAA
switch fluorescence ratio: 0.981

GTGGAATCGT
switch fluorescence ratio: 1.02

ACCACTCTTG
switch fluorescence ratio: 1.04

GTTTCGTTA
switch fluorescence ratio: 0.992

AGAAGGGATC
switch fluorescence ratio: 1.02

GATACTCGAC
switch fluorescence ratio: 1.45

TCAATAGTG
switch fluorescence ratio: 1.01

ATCGCTAATA
switch fluorescence ratio: 1.2

CTAGAGAGCA
switch fluorescence ratio: 1.02

GACCGTAGTT
switch fluorescence ratio: 1.09

GCGCGCG
switch fluorescence ratio: 1.03

TACGCAAGTA
switch fluorescence ratio: 1.17

CTAGGATGAG
switch fluorescence ratio: 1.01

CTTTTAGCAT
switch fluorescence ratio: 1.16

TGAGTTAGCA
switch fluorescence ratio: 0.978

TTGAAGAGGA
switch fluorescence ratio: 0.95

CGAATCATTA
switch fluorescence ratio: 0.969

GCCAAAAAGT
switch fluorescence ratio: 0.982

ATAGTAATTA
switch fluorescence ratio: 0.97

TAATGTTGTA
switch fluorescence ratio: 1.12

AAGCTCCGAA
switch fluorescence ratio: 1.28

CGTAATCTCT
switch fluorescence ratio: 1.07

CTATACTCTA
switch fluorescence ratio: 1.09

ATCTTGGGA
switch fluorescence ratio: 1.02

AATGGATC
switch fluorescence ratio: 0.98

TGATTCAGTG
switch fluorescence ratio: 1

ACTGTACATA
switch fluorescence ratio: 1.45

TGCATAAGAG
switch fluorescence ratio: 1.05

CACATTCACT
switch fluorescence ratio: 1.12

AGTCGGGTC
switch fluorescence ratio: 0.971

GATTAAGCGG
switch fluorescence ratio: 0.959

AACATACTGG
switch fluorescence ratio: 1.37

TTCGAACAGA
switch fluorescence ratio: 1.07

ACGCAAGAAT
switch fluorescence ratio: 2.3

GGGTCCAAGT
switch fluorescence ratio: 1

CTTTTGCTGG
switch fluorescence ratio: 0.983

CCGTTGATGG
switch fluorescence ratio: 1.1

GCGGCCACGA
switch fluorescence ratio: 1.04

ATTGGAAATT
switch fluorescence ratio: 0.963

ATCTGTTATT
switch fluorescence ratio: 1.02

TAACATTGAG
switch fluorescence ratio: 0.99

ATTTATCAC
switch fluorescence ratio: 1.03

TTGAATGATA
switch fluorescence ratio: 0.998

GTAAGCCGTT
switch fluorescence ratio: 1.03

GCGGGGGACG
switch fluorescence ratio: 1.07

GGGGCCCGAT
switch fluorescence ratio: 1.01

CACTTGAGGC
switch fluorescence ratio: 0.943

AAGCAGTCTT
switch fluorescence ratio: 0.998

CCTCACATTT
switch fluorescence ratio: 1.28

TTTATGTCTT
switch fluorescence ratio: 0.969

AATACCACG
switch fluorescence ratio: 1.13

GGAGTGTAAT
switch fluorescence ratio: 1

AGACTTAGGT
switch fluorescence ratio: 1.02

AGTTCAGGGT
switch fluorescence ratio: 0.979

GAATCTTGTA
switch fluorescence ratio: 0.99

CAGCTTACGA
switch fluorescence ratio: 1.56

TCCTCATTT
switch fluorescence ratio: 0.991

CTCCTGAATG
switch fluorescence ratio: 1.08

CATCTGTATT
switch fluorescence ratio: 1.07

TTGATGCCAA
switch fluorescence ratio: 1.11

ATTTGAGTAC
switch fluorescence ratio: 1.04

TTATAATG
switch fluorescence ratio: 0.991

TGTAAGGAGA
switch fluorescence ratio: 1.03

CACCCGTTCC
switch fluorescence ratio: 1.47

AATACTTGGC
switch fluorescence ratio: 0.906

TACGCACTTT
switch fluorescence ratio: 1.28

TAGGGGTAG
switch fluorescence ratio: 0.984

CGGAGGTC
switch fluorescence ratio: 1.12

TCGGATGGAA
switch fluorescence ratio: 1.03

AACGCTTCTT
switch fluorescence ratio: 1.01

AGGAAGGATA
switch fluorescence ratio: 0.966

CTTTCGGCTC
switch fluorescence ratio: 1.09

AAAGGCGCTT
switch fluorescence ratio: 1.02

GGAGCTCAAA
switch fluorescence ratio: 1.03

GAGTGAGGAC
switch fluorescence ratio: 0.954

CTTCTGATAC
switch fluorescence ratio: 2.43

CTTCTAGCGA
switch fluorescence ratio: 1.65

CGCAGCCGC
switch fluorescence ratio: 1.22

TATTTCGCAT
switch fluorescence ratio: 1.38

CTGAAGGG
switch fluorescence ratio: 1.06

AAATGGGGCA
switch fluorescence ratio: 0.98

GCCAGTAAAG
switch fluorescence ratio: 1.03

AATGTG
switch fluorescence ratio: 0.983

CCAGCTGTCA
switch fluorescence ratio: 0.999

GCATGATGAG
switch fluorescence ratio: 1.02

CGGCCGAAG
switch fluorescence ratio: 0.998

TCAGATAGTC
switch fluorescence ratio: 0.985

CCGGTACAGC
switch fluorescence ratio: 1.3

ATGGTGATA
switch fluorescence ratio: 0.992

ACCGATTATG
switch fluorescence ratio: 1.05

GTGCGATACC
switch fluorescence ratio: 2.7

GAGTTCAGGC
switch fluorescence ratio: 0.971

TTAGTTGTCA
switch fluorescence ratio: 0.983

TGCGTTTAGT
switch fluorescence ratio: 1.03

GTTGGAGCGG
switch fluorescence ratio: 0.972

TTATTTAGTG
switch fluorescence ratio: 0.939

Reference: the supplement of paper PMC10126150
